# In all, about 310,000 compounds went through this assay and about 14,000 (4.5%) showed an effect of 50% or more. The effect is printed as a negative number. Some of the results follow.
# Target: human ether-à-go-go-related gene (hERG) potassium channel (human, UniProt Q12809)
# Test: primary screen, population patch clamp on CHO cells stably expressing hERG
# 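Also: peak tail current of the secondary pulse compared with the same well before compound.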
# human ether-à-go-go-related gene (hERG) potassium channel, sequence (Q12809 whole entry, looked up): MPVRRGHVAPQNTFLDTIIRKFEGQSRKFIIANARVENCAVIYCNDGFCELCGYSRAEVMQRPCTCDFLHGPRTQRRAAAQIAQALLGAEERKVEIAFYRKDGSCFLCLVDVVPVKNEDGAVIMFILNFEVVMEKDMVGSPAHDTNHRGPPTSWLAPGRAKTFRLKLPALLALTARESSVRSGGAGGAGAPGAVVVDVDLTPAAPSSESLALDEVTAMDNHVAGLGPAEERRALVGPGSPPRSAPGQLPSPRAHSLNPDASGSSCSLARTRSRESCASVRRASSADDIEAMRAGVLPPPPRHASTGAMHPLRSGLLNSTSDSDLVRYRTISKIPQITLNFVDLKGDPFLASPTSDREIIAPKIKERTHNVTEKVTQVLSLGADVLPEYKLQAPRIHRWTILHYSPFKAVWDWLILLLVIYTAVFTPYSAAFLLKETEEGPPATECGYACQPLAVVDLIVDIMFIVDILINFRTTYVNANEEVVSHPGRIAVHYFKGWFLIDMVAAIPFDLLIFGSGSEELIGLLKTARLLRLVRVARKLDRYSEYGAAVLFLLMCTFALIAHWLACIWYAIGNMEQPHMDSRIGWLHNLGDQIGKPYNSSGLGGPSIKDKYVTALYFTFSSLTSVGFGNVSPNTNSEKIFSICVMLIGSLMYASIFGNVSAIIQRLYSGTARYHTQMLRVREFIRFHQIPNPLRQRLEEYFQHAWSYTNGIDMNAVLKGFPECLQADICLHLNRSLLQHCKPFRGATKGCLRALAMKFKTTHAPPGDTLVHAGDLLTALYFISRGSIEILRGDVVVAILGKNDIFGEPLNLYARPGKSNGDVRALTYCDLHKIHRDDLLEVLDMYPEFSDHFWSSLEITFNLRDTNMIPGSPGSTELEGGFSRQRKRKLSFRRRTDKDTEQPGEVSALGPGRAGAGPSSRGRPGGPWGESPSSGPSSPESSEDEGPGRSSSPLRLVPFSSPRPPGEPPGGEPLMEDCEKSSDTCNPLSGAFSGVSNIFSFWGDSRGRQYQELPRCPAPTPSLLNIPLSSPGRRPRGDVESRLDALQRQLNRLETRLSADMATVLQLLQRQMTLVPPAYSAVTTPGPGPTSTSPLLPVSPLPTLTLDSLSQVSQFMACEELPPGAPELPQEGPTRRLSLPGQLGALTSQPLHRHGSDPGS
row,SMILES,"hERG current change (%, negative = inhibition) at 10uM"
1,Cn1nc([N+](=O)[O-])c(C(C#N)c2ccccn2)c(Cl)c1=O (centres unmarked),7.61%
2,Cn1c(=NC(=O)CS(=O)(=O)c2ccccc2)sc2cc([N+](=O)[O-])ccc21,-36.5%
3,CC(=O)NC(=S)Nc1ccc([N+](=O)[O-])cc1C,-31.8%
4,Cc1cccc(C)c1NC(=O)COC(=O)CN1C(=O)C2CCCCC2C1=O (centres unmarked),5.85%
5,Cc1oc(C)c2c(=O)ccc3c(c12)OC(N)=C(C#N)C3c1ccc(F)cc1 (centres unmarked),-6.44%
6,COc1ccccc1NC(=O)C1CC(C)OC1=O (centres unmarked),12.8%
7,CCn1c(CSc2nc3ccccc3s2)nnc1SCC(=O)c1ccc2c(c1)OCCO2,-10.5%
8,CCN(Cc1ccccc1)S(=O)(=O)c1c(N)n(C)c(=O)n(C)c1=O,5.47%
9,COc1ccc(C(=O)COC(=O)c2ccc3ccccc3n2)cc1,-7.97%
10,O=C(CC(=O)Nc1cccc(Cl)c1)N/N=C\c1ccccc1,6.81%
11,O=C(NNC(=O)c1ccccc1[N+](=O)[O-])c1cnccn1,-6.66%
12,Cc1ccc(CNS(=O)(=O)c2c(N)n(C)c(=O)n(C)c2=O)cc1,8.77%
13,CC(C)CCNS(=O)(=O)c1cc2c3c(c1)CCN3C(=O)CC2,2.2%
14,Cc1oc(-c2ccc(Cl)cc2)nc1CN1CCC(C(=O)NCC2CCCO2)CC1 (centres unmarked),-70.1%
15,CC1CCCC(C)N1CC(O)Cn1c2ccccc2c2ccccc21 (centres unmarked),-37.4%
16,O=c1oc2ccccc2c(Nc2cccc3cccnc23)c1[N+](=O)[O-],17.8%
17,COc1ccc(/C=C2\SC(=S)N(CC(=O)NCCO)C2=O)cc1,16.5%
18,CC1=C(C(=O)N2CCc3ccccc32)C2(CCC(C)CC2)OC1=O (centres unmarked),-23.5%
19,O=C(Nc1ccc2c(c1)CCC2)Nc1ccc(F)cc1F,15.5%

row,SMILES,"hERG current change (%, negative = inhibition) at 10uM"
1,CS(=O)(=O)N(CC(=O)NCCc1ccccc1)C1CCCCC1,-4.17%
2,O=C(CSc1nnc(CNC(=O)c2cccs2)o1)NCCc1ccccc1,-1.98%
3,CCc1ccc(/C=C2\SC(=S)N(CCC(=O)NC3=NCCS3)C2=O)cc1,27.8%
4,O=C(c1ccc2nc[nH]c2c1)N1CCc2ccccc2C1,0.829%
5,O=C(CS(=O)(=O)c1ccccc1)NCc1ccc(Cl)cc1,7.79%
6,CSc1ccc(NS(=O)(=O)c2ccc(-n3cnnn3)cc2)cc1,3.08%
7,CC(C)c1ccccc1NC(=O)COC(=O)Cc1c[nH]c2ccccc12,7.28%
8,O=C(NC1CC1)C1=C[C@H](C2CCCCC2)C[C@H](OCCCCO)O1,-16%
9,Cc1ccc2[nH]c3c(=O)[nH]ncc3c2c1,-0.439%
10,NC(=O)c1ccccc1OCC(=O)NC12CC3CC(CC(C3)C1)C2,7.48%
11,O=C(CSc1nnc2ccc(-c3ccccn3)nn12)Nc1ccccc1F,17.3%
12,O=C(CCS(=O)(=O)Cc1ccccc1)N1CCc2ccccc2C1,-0.206%
13,Cc1cc(C)cc(NC(=O)C(OC(=O)C2=COCCO2)c2ccccc2)c1 (centres unmarked),-8.3%
14,O=C(CCC(=O)Nc1ccccc1Cl)NN=C1CCCC1,4.23%
15,COc1cccc(NC(=O)COC(=O)Cc2ccc(Br)cc2)c1,5.51%
16,COC(=O)C1=C(C)NC(=O)NC1c1ccc(-c2ccc(F)cc2)o1 (centres unmarked),10.8%
17,CCN=C1SC(CC(=O)NC(C)c2ccccc2)C(=O)N1CC (centres unmarked),16.7%
18,CCN(CC)S(=O)(=O)c1ccc(C(=O)Nc2cc(C)cc(C)c2)cc1,-8.53%
19,CCOc1ccccc1OCc1nn2c(COc3ccccc3)nnc2s1,4.95%

row,SMILES,"hERG current change (%, negative = inhibition) at 10uM"
1,CC(C)(C)C1CCc2c(C(=O)NNC(=O)/C=C/C(=O)O)csc2C1 (centres unmarked),10.3%
2,Cc1ccc(NS(=O)(=O)c2ccc3c(c2)NC(=O)C(C)C(=O)N3)c(Cl)c1 (centres unmarked),0.637%
3,CCCN1CCN(S(=O)(=O)c2ccc3c(c2)NC(=O)C(C)S3)CC1 (centres unmarked),-3.49%
4,CCOC(=O)C[C@H]1c2ccccc2S(=O)(=O)N1c1cccc(OC)c1,0.858%
5,COC(=O)c1ccc(NC(=O)C23CC4CC(C2)CC(n2cnc(Cl)n2)(C4)C3)cc1,-27.3%
6,CCCn1cc(SCC(=O)NCc2ccc3c(c2)OCO3)c2ccccc21,-0.451%
7,COc1ccc2cc(C(=O)N(C)CC(=O)Nc3ccccc3Br)ccc2c1,-5.11%
8,CC/C(C)=N/NC(=O)c1[nH]c2ccc(C)cc2c1-c1ccccc1,0.516%
9,CCN(CC)CCN=C(C)c1c(O)n(-c2ccccc2OC)c(=O)[nH]c1=O,4.71%
10,NC(=O)c1sc(-c2ccsc2)cc1NS(=O)(=O)c1ccc(C(F)(F)F)cc1,11.7%
11,Cc1cc(NC(=O)CSc2nnc(COc3cccc(C)c3C)n2Cc2ccco2)no1,4.27%
12,CC1CCN(C(=O)Cn2cc(S(=O)(=O)CC(=O)N3CCOCC3)c3ccccc32)CC1,-16.4%
13,Cc1cccc(C(=O)Nc2ccccc2-c2nnn(CC(=O)Nc3ccc4c(c3)OCCO4)n2)c1,-2.64%
14,CC(=O)c1cccc(NC(=O)C2CCCN(S(C)(=O)=O)C2)c1 (centres unmarked),8.02%
15,Cc1ccc(OCC(=O)Nc2ccccc2C(=O)N2CCCCC2)cc1,0.609%
16,Cc1ccccc1-c1cc(-c2ccccc2O)n[nH]1,7.08%
17,CCN1CCN(c2c(/C=C3\SC(=S)N(Cc4ccco4)C3=O)c(C)c(C#N)c(=O)n2C)CC1,0.931%
18,CCN(CC)CCCN(C(=O)c1ccc(OC)cc1)c1nc(-c2ccc(OC)cc2)cs1,-73.7%
